The other results are listed elsewhere or left out. The list includes weakly bound sequences.

The target in the test is T1, MBP-FoxP3dN (UniProt Q99JB6).
T1 sequence: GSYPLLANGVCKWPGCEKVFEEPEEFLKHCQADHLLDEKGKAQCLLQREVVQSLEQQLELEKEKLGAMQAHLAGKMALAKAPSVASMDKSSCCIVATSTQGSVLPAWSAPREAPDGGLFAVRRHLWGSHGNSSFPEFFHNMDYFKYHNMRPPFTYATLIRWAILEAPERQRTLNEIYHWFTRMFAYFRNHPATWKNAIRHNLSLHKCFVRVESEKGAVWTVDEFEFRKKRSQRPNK
As to the kind of experiment: PD-seq (MBP pull-down with sequencing). To be noted: 20 mM Tris-HCl pH 7.5, 100 mM NaCl, 1.5 mM MgCl2, 0.4 uM protein, 0.1 uM dsDNA library, 30 min, room temperature, amylose pull-down; high values mean tight binding; double strand, one strand shown.
Turning to “GATGATTGTTCTCCCAGCTGATGAATTAAGATCGTCGAGTAAACAAATTTTCCTAATCTTTCTGTTCAAGCGCCATCTAC”, the binding signal (RPM ratio (pull-down/input)) worked out at 0.318.

As to “GATGATTGTTCTCCCAGCTGATGAATTCTACGTGTCGAGTAAACAAATTTTCCTAATCTTTCTGTTCAAGCGCCATCTAC”, the binding signal (RPM ratio (pull-down/input)) was determined as 0.485.

As to “GATGATTGTTCTCCCAGCTGATGAATTCCAGTCTTCGAGTAAACAAATTTTCCTAATCTTTCTGTTCAAGCGCCATCTAC”, the binding signal (RPM ratio (pull-down/input)) worked out at 0.354.

Regarding “GATGATTGTTCTCCCAGCTGATGAATTTTGTGGCTCGAGTAAACAAATTTTCCTAATCTTTCTGTTCAAGCGCCATCTAC”, the binding signal (RPM ratio (pull-down/input)) stood at 1.92.

In the case of “GATGATTGTTCTCCCAGCTGATGAATTACCGAACTCGAGTAAACAAATTTTCCTAATCTTTCTGTTCAAGCGCCATCTAC”, the binding signal (RPM ratio (pull-down/input)) came out at 0.269.

“GATGATTGTTCTCCCAGCTGATGAATTGCACTCTTCGAGTAAACAAATTTTCCTAATCTTTCTGTTCAAGCGCCATCTAC”: the binding signal (RPM ratio (pull-down/input)) stood at 1.06.

As to “GATGATTGTTCTCCCAGCTGATGAATTGCGTCCCTCGAGTAAACAAATTTTCCTAATCTTTCTGTTCAAGCGCCATCTAC”, the binding signal (RPM ratio (pull-down/input)) was 1.31.

As to “GATGATTGTTCTCCCAGCTGATGAATTATGCGCTTCGAGTAAACAAATTTTCCTAATCTTTCTGTTCAAGCGCCATCTAC”, the binding signal (RPM ratio (pull-down/input)) was determined as 1.88.

With “GATGATTGTTCTCCCAGCTGATGAATTAACTTAATCGAGTAAACAAATTTTCCTAATCTTTCTGTTCAAGCGCCATCTAC”, the binding signal (RPM ratio (pull-down/input)) was 0.232.

In the case of “GATGATTGTTCTCCCAGCTGATGAATTTTCCTTTTCGAGTAAACAAATTTTCCTAATCTTTCTGTTCAAGCGCCATCTAC”, the binding signal (RPM ratio (pull-down/input)) was 0.231.

In the case of “GATGATTGTTCTCCCAGCTGATGAATTTTGGATTTCGAGTAAACAAATTTTCCTAATCTTTCTGTTCAAGCGCCATCTAC”, the binding signal (RPM ratio (pull-down/input)) came out at 0.346.

Turning to “GATGATTGTTCTCCCAGCTGATGAATTAGCCTCCTCGAGTAAACAAATTTTCCTAATCTTTCTGTTCAAGCGCCATCTAC”, the binding signal (RPM ratio (pull-down/input)) came out at 1.57.

In the case of “GATGATTGTTCTCCCAGCTGATGAATTTATGTAGTCGAGTAAACAAATTTTCCTAATCTTTCTGTTCAAGCGCCATCTAC”, the binding signal (RPM ratio (pull-down/input)) stood at 2.42.

Consider “GATGATTGTTCTCCCAGCTGATGAATTCCATACCTCGAGTAAACAAATTTTCCTAATCTTTCTGTTCAAGCGCCATCTAC”, for which the binding signal (RPM ratio (pull-down/input)) came out at 0.362.

On to “GATGATTGTTCTCCCAGCTGATGAATTAATATCTTCGAGTAAACAAATTTTCCTAATCTTTCTGTTCAAGCGCCATCTAC”, for which the binding signal (RPM ratio (pull-down/input)) turned out to be 0.655.

As to “GATGATTGTTCTCCCAGCTGATGAATTCACTCTTTCGAGTAAACAAATTTTCCTAATCTTTCTGTTCAAGCGCCATCTAC”, the binding signal (RPM ratio (pull-down/input)) stood at 0.261.

For the sequence “GATGATTGTTCTCCCAGCTGATGAATTTTCGTCTTCGAGTAAACAAATTTTCCTAATCTTTCTGTTCAAGCGCCATCTAC”, the binding signal (RPM ratio (pull-down/input)) came to 0.346.

As to “GATGATTGTTCTCCCAGCTGATGAATTACGTTCTTCGAGTAAACAAATTTTCCTAATCTTTCTGTTCAAGCGCCATCTAC”, the binding signal (RPM ratio (pull-down/input)) worked out at 0.566.

“GATGATTGTTCTCCCAGCTGATGAATTGACGTATTCGAGTAAACAAATTTTCCTAATCTTTCTGTTCAAGCGCCATCTAC”: the binding signal (RPM ratio (pull-down/input)) amounted to 1.15.

For “GATGATTGTTCTCCCAGCTGATGAATTTGCTAAATCGAGTAAACAAATTTTCCTAATCTTTCTGTTCAAGCGCCATCTAC”, the binding signal (RPM ratio (pull-down/input)) turned out to be 0.319.

As for “GATGATTGTTCTCCCAGCTGATGAATTCACTCCTTCGAGTAAACAAATTTTCCTAATCTTTCTGTTCAAGCGCCATCTAC”, the binding signal (RPM ratio (pull-down/input)) was determined as 0.292.

“GATGATTGTTCTCCCAGCTGATGAATTAGAATGCTCGAGTAAACAAATTTTCCTAATCTTTCTGTTCAAGCGCCATCTAC”: the binding signal (RPM ratio (pull-down/input)) amounted to 0.839.

In the case of “GATGATTGTTCTCCCAGCTGATGAATTCTTTAATTCGAGTAAACAAATTTTCCTAATCTTTCTGTTCAAGCGCCATCTAC”, the binding signal (RPM ratio (pull-down/input)) was determined as 0.234.

In the case of “GATGATTGTTCTCCCAGCTGATGAATTAAGAATATCGAGTAAACAAATTTTCCTAATCTTTCTGTTCAAGCGCCATCTAC”, the binding signal (RPM ratio (pull-down/input)) was 0.376.

In the case of “GATGATTGTTCTCCCAGCTGATGAATTATATGGCTCGAGTAAACAAATTTTCCTAATCTTTCTGTTCAAGCGCCATCTAC”, the binding signal (RPM ratio (pull-down/input)) is 0.6.

Take “GATGATTGTTCTCCCAGCTGATGAATTCAACAGATCGAGTAAACAAATTTTCCTAATCTTTCTGTTCAAGCGCCATCTAC”: the binding signal (RPM ratio (pull-down/input)) stood at 0.255.

Regarding “GATGATTGTTCTCCCAGCTGATGAATTTATAGCTTCGAGTAAACAAATTTTCCTAATCTTTCTGTTCAAGCGCCATCTAC”, the binding signal (RPM ratio (pull-down/input)) was 1.09.

Consider “GATGATTGTTCTCCCAGCTGATGAATTGAAATGGTCGAGTAAACAAATTTTCCTAATCTTTCTGTTCAAGCGCCATCTAC”, for which the binding signal (RPM ratio (pull-down/input)) was 0.258.

In the case of “GATGATTGTTCTCCCAGCTGATGAATTGAACACGTCGAGTAAACAAATTTTCCTAATCTTTCTGTTCAAGCGCCATCTAC”, the binding signal (RPM ratio (pull-down/input)) stood at 0.368.

In the case of “GATGATTGTTCTCCCAGCTGATGAATTACCCCAGTCGAGTAAACAAATTTTCCTAATCTTTCTGTTCAAGCGCCATCTAC”, the binding signal (RPM ratio (pull-down/input)) is 0.208.

Take “GATGATTGTTCTCCCAGCTGATGAATTCTCCACGTCGAGTAAACAAATTTTCCTAATCTTTCTGTTCAAGCGCCATCTAC”: the binding signal (RPM ratio (pull-down/input)) came to 0.253.

Turning to “GATGATTGTTCTCCCAGCTGATGAATTTTGCAGATCGAGTAAACAAATTTTCCTAATCTTTCTGTTCAAGCGCCATCTAC”, the binding signal (RPM ratio (pull-down/input)) came out at 0.618.

On to “GATGATTGTTCTCCCAGCTGATGAATTAGGCCTATCGAGTAAACAAATTTTCCTAATCTTTCTGTTCAAGCGCCATCTAC”, for which the binding signal (RPM ratio (pull-down/input)) stood at 1.68.

On to “GATGATTGTTCTCCCAGCTGATGAATTGTTACGTTCGAGTAAACAAATTTTCCTAATCTTTCTGTTCAAGCGCCATCTAC”, for which the binding signal (RPM ratio (pull-down/input)) is 0.986.

Take “GATGATTGTTCTCCCAGCTGATGAATTACCGTTATCGAGTAAACAAATTTTCCTAATCTTTCTGTTCAAGCGCCATCTAC”: the binding signal (RPM ratio (pull-down/input)) was determined as 0.764.

Consider “GATGATTGTTCTCCCAGCTGATGAATTCTGCTATTCGAGTAAACAAATTTTCCTAATCTTTCTGTTCAAGCGCCATCTAC”, for which the binding signal (RPM ratio (pull-down/input)) came out at 4.04.

Turning to “GATGATTGTTCTCCCAGCTGATGAATTGCAGCATTCGAGTAAACAAATTTTCCTAATCTTTCTGTTCAAGCGCCATCTAC”, the binding signal (RPM ratio (pull-down/input)) was determined as 5.93.

As for “GATGATTGTTCTCCCAGCTGATGAATTTATTGCGTCGAGTAAACAAATTTTCCTAATCTTTCTGTTCAAGCGCCATCTAC”, the binding signal (RPM ratio (pull-down/input)) is 3.75.

Take “GATGATTGTTCTCCCAGCTGATGAATTATTGAGATCGAGTAAACAAATTTTCCTAATCTTTCTGTTCAAGCGCCATCTAC”: the binding signal (RPM ratio (pull-down/input)) came out at 0.438.

On to “GATGATTGTTCTCCCAGCTGATGAATTGGTGAGATCGAGTAAACAAATTTTCCTAATCTTTCTGTTCAAGCGCCATCTAC”, for which the binding signal (RPM ratio (pull-down/input)) was 0.341.

Values taken from publication PMC12820563.
